Measurements published in PMC4336329 (PLoS ONE, 2015).
Out of some 310,000 compounds screened, about 2,200 (0.71%) showed an effect of 50% or more. The effect is printed as a negative number. The list shows a part of the results.

The molecules below were run against human ether-à-go-go-related gene (hERG) potassium channel (human, UniProt Q12809) (assay: primary screen, population patch clamp on CHO cells stably expressing hERG).
Sequence of human ether-à-go-go-related gene (hERG) potassium channel (Q12809 whole entry, looked up): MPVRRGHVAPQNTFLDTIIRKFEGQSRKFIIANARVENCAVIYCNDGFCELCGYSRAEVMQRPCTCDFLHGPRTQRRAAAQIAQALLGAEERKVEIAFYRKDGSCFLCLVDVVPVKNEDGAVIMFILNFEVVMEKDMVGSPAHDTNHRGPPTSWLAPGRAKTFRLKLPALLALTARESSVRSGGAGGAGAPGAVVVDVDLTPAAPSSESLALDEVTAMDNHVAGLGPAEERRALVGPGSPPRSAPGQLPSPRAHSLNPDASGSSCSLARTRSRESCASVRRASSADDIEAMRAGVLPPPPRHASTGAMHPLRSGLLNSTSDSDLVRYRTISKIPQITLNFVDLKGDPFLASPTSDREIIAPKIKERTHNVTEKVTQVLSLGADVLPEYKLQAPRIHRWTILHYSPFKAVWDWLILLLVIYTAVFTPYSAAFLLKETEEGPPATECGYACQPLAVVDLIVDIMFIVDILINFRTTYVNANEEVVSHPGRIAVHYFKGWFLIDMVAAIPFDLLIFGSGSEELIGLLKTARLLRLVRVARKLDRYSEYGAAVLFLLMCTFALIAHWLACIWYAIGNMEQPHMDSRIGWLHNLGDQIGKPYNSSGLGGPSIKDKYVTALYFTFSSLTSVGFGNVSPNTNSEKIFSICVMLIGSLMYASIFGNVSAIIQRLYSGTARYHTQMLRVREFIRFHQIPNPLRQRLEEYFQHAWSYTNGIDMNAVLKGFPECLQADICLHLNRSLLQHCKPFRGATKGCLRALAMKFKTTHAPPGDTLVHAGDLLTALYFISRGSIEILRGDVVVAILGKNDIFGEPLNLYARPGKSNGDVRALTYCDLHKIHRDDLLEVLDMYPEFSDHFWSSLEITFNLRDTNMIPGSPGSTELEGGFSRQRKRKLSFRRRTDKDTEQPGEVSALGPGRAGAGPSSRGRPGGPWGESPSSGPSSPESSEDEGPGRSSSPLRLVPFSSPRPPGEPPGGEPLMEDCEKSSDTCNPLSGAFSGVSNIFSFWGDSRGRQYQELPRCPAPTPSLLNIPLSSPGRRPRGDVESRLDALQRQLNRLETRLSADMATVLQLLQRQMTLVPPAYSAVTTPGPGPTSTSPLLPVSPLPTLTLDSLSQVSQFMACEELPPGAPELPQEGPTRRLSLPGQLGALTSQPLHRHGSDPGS

| SMILES | hERG current change (%, negative = inhibition) at 1uM |
| --- | --- |
| COc1ccc(C2C(C(C)=O)=C(O)C(=O)N2c2nccs2)cc1OC (centres unmarked) | -7.25% |
| CCCCNC(=S)N=Nc1c(O)n(Cc2ccccc2)c2ccccc12 | 0.995% |
| C=CCSc1nnc2n(CCc3ccccc3)c(=O)c3c4c(sc3n12)COC(C)(C)C4 | 10.6% |
| COc1ccc2c(c1)c(C(=O)N/N=C/c1ccc(Cl)cc1)c(C)n2C | -10.2% |
| CN(C)S(=O)(=O)c1cccc(C(=O)Nc2ccc(N3CCOCC3)cc2)c1.Cl | 12.8% |
| COc1ccccc1NC(=O)CSc1nc(SC)ns1 | 11.9% |
| CC(=O)N1CCOc2ccc(S(=O)(=O)N3CCC(C(=O)Nc4cc(C)cc(C)c4)CC3)cc21 | 15.6% |
| O=C(OCc1cc(Cl)ccc1OC(F)F)c1cncc(Br)c1 | 9.64% |
| COc1cc2c(cc1NC(=O)C(C)OC(=O)c1ccc(S(=O)(=O)Nc3ccccc3Cl)cc1)oc1ccccc12 (centres unmarked) | 10.5% |
| CCOC(=O)c1sc(N/N=C/c2ccc(N(C)C)cc2)nc1C | -0.996% |
| CCCc1cc(=O)oc2cc(OCC(=O)NCCCN3CCOCC3)ccc12 | 6.59% |
| CC(=O)Nc1ccc(N(C(=O)c2ccco2)C(C(=O)NC2CCCC2)c2ccc(N3CCOCC3)cc2)cc1 (centres unmarked) | 14.3% |
| O=C(Cn1c(=O)sc2ccccc21)Nc1ccc(S(=O)(=O)N2CCCC2)cc1 | 9.34% |
| CCOC(=O)C1C(=O)CC(=O)CC1CC(C)SCC (centres unmarked) | 13.7% |
| COc1cc(Cl)c(C)cc1NC(=O)CSc1ccccc1 | 7.59% |
| CCCCn1c(SCC(=O)NC2CCCC2)nc2ccccc2c1=O | 4.94% |
| Cl.O=[N+]([O-])c1cc(S(=O)(=O)NCCCN2CCOCC2)ccc1Cl | -2.31% |
| O=C(NC(=S)N1CCN(c2ccc(Cl)cc2[N+](=O)[O-])CC1)c1cccs1 | -0.239% |
| Cc1ccc(N2C(=O)[C@@H]3[C@H](C2=O)[C@H]2C=CC=NN2[C@@H]3C(=O)Nc2ccccc2)cc1 | 13.3% |

| SMILES | hERG current change (%, negative = inhibition) at 1uM |
| --- | --- |
| COc1ccc(NC(=O)CSc2nc3ccccc3nc2N2CCCC2)cc1 | 15.4% |
| CN1CCN(C(=S)Nc2cccc(Cl)c2)CC1 | 7.2% |
| O=C(c1ccc(CN2CCOCC2)cc1)N1CCN(c2ccccc2)CC1 | 10.8% |
| COc1ccc(NC(=O)NCCN2CCN(c3cc(OC)ccc3OC)CC2)cc1 | 13.5% |
| Cc1ccc2c(c1)sc(C)[n+]2CCCS(=O)(=O)[O-] | 16.2% |
| COCc1cc(C)nc(SCC(=O)Nc2ccc3c(c2)n(C)c(=O)n3C)c1C#N | 17.5% |
| Cn1c(SCC(=O)Nc2cccnc2)nnc1-c1ccccc1F | 19.2% |
| O=C(CN1CCOCC1)Nc1ccc(Br)cn1 | 7.12% |
| CC(C)(C)c1csc(NC2=NS(=O)(=O)c3ccccc32)n1 | 13.7% |
| Cc1ccc(NC(=S)NNC(=O)CSc2nc3ccccc3c(=O)n2-c2ccc(C)cc2)cc1 | 12.6% |
| O=C(Nc1ccc2oc(-c3ccncc3)nc2c1)c1c(F)c(F)c(F)c(F)c1F | 13.4% |
| Cc1ccccc1Nc1nnc(SCC(=O)NCc2cccs2)s1 | 4.93% |
| S=c1[nH]c2ccccc2[nH]1 | -6.79% |
| Cc1cccc(NC(=O)CN2CCN(C(=O)c3cnn(Cc4ccccc4)c3)CC2)c1C | -43.3% |
| Cc1oc(-c2ccc(Cl)cc2)nc1CN1CCC(C(=O)NCCCN2CCCC2=O)CC1 | -7.81% |
| CCOC(=O)CC1=Nc2ccccc2NC(=O)C1 | 5.61% |
| COc1ccccc1CN1C[C@@H]2C[C@@H](C3=Cc4cc(Cl)ccc4OC3)N3CCC[C@@]23C1=O | -12.9% |
| O=C(COc1ccc(F)cc1)c1c(O)cc(O)cc1O | 9% |
| C[C@H]1CN(C2CCCCC2)C(=O)[C@@H]1CC(=O)NCc1ccccc1 | -5.6% |

| SMILES | hERG current change (%, negative = inhibition) at 1uM |
| --- | --- |
| COc1cc2c(cc1NC(=O)CN1C(=O)NC3(CCc4ccccc43)C1=O)oc1ccccc12 (centres unmarked) | 6.63% |
| CCn1c(SCC(=O)N2CCOCC2)nc2oc3c(Cl)cc(Cl)cc3c(=O)c2c1=O | -11.6% |
| Cc1cccn2c(=O)nc(SCC(=O)N3CCC(C)CC3)nc12 | 2.05% |
| COC(=O)c1c(C)[nH]c(C)c1-c1ccc([N+](=O)[O-])cc1 | 17.3% |
| CC(=O)Nc1ccc(NC(=O)C(=O)c2cn(CC(=O)N3CCCC3)c3ccccc23)cc1 | 15% |
| Cc1ccc(C)c(NC(=O)C2CCC(C)(C(=O)O)C2(C)C)c1 (centres unmarked) | -11.1% |
| O=C(c1cc2ccccc2o1)N1CCN(S(=O)(=O)/C=C/c2ccccc2)CC1 | 15.3% |
| Cn1nnnc1SCC(=O)NC(C)(C)C | 7.36% |
| Cc1cc(C)c(C(N)=O)c(Nc2ccc3c(c2)OCCO3)n1 | 7.39% |
| CC(C)(C)c1cc(C(=O)N2CCN(c3ncccn3)CC2)ccn1 | -5.59% |
| CCOc1ccccc1NC(=O)C1CCN(S(C)(=O)=O)CC1 | 2.95% |
| O=C(NCCCl)C1Cc2c(ccc3ccccc23)O1 (centres unmarked) | 11.8% |
| OCCCNc1c2ccccc2nc2ccccc12 | -10.8% |
| O=S(=O)(NCCc1csc(-c2cccnc2)n1)c1cccs1 | -2.75% |
| CCCCCn1c(N2CCN(Cc3ccccc3)CC2)nc2c1c(=O)[nH]c(=O)n2C | -77% |
| O=C(C1=C(O)C(=O)N(CCN2CCOCC2)C1c1ccc(Br)cc1)c1cc2ccccc2o1 (centres unmarked) | 15.5% |
| O=C(Cn1nnc(-c2ccc(F)cc2)n1)N1CCCCC1 | 6.81% |
| COc1ccc(Cn2nnnc2CN(Cc2cc3cccc(C)c3[nH]c2=O)C2CCCC2)cc1 | -34.5% |
